We go through 40 compounds from the antibiotic and cytotoxicity screens of Wong et al. (2023).

This is one part of the list.

The first test deals with HSkMC (human skeletal muscle cells). Briefly: cytotoxicity call (relative viability < 0.9). To be noted: 10 µM.
In the case of `N[C@H]1CCN(c2ccc(C(F)(F)F)cn2)C1`, the cytotoxicity call was “inactive”.

Consider `C[C@@H]1CN([C@@H](C)CO)C(=O)Cc2cc(NC(=O)c3ccncc3)ccc2O[C@H]1CN(C)Cc1ccncc1`, for which the cytotoxicity call is “inactive”.

Take `C[C@H]1CN([C@@H](C)CO)C(=O)Cc2cc(NC(=O)Nc3ccc(C(F)(F)F)cc3)ccc2O[C@H]1CN(C)C(=O)Nc1cccc2ccccc12`: the cytotoxicity call is “inactive”.

For `C[C@H](CO)N1C[C@H](C)[C@@H](CN(C)C(=O)Nc2cccc3ccccc23)Oc2c(NS(=O)(=O)c3cccs3)cccc2C1=O`, the cytotoxicity call was “inactive”.

`COc1ccc(cc1)S(=O)(=O)N1C[C@]2(C1)CN([C@H](CO)c1c2c2ccc(cc2n1C)OC)C(=O)c1cccnc1`: the cytotoxicity call is “inactive”.

In the case of `CCO[C@H]1OC(C(=O)N2CCOCC2)=C[C@@H](c2ccc3c(c2)OCO3)[C@@H]1CCCOC(=O)NCCCCCC(=O)NO`, the cytotoxicity call is “inactive”.

On to `Cc1noc(C)c1NC(=O)Nc1ccc2c(c1)C(=O)N([C@@H](C)CO)C[C@@H](C)[C@@H](CN(C)S(=O)(=O)c1ccc(Cl)cc1)OCCCC[C@H](C)O2`, for which the cytotoxicity call was “inactive”.

In the case of `CN(C)CCN1CCN(C)C2(CCN(C(=O)[C@H]3CCCO3)CC2)C1=O`, the cytotoxicity call was “inactive”.

For the compound `O=C(CS(=O)(=O)c1cccc2nsnc12)N1CC(=O)N(CCc2ccccc2)C(=O)C1`, the cytotoxicity call is “inactive”.

As for `COc1ccc(NC(=O)N[C@H]2CC[C@H](CCNC(=O)CN3CCOCC3)O[C@@H]2CO)cc1`, the cytotoxicity call is “inactive”.

As to `COc1nsnc1N1CCOCC1`, the cytotoxicity call is “inactive”.

As for `Cc1cc(=O)oc2cc(O[C@H]3O[C@@H](CO)[C@@H](O)[C@@H](O)[C@@H]3O)ccc12`, the cytotoxicity call is “inactive”.

With `O=C(C[C@H]1CC[C@@H]2[C@H](COC[C@H](O)CN2S(=O)(=O)c2ccc(Cl)cc2)O1)NCCN1CCCC1`, the cytotoxicity call was “inactive”.

For `C[C@H]1CN([C@@H](C)CO)C(=O)Cc2cc(NC(=O)C3CC3)ccc2O[C@@H]1CN(C)S(=O)(=O)c1ccc(Cl)cc1`, the cytotoxicity call is “inactive”.

Consider `C[C@@H]1CCCCO[C@H](CN(C)C(=O)Nc2ccc(C(F)(F)F)cc2)[C@H](C)CN([C@H](C)CO)C(=O)c2cc(NC(=O)Cc3ccccc3)ccc2O1`, for which the cytotoxicity call was “inactive”.

Take `Cc1noc(C)c1S(=O)(=O)Nc1cccc2c1O[C@@H](CN(C)C(=O)NC1CCCCC1)[C@@H](C)CN([C@H](C)CO)C2=O`: the cytotoxicity call is “inactive”.

For the compound `C[C@H](CO)N1C[C@H](C)[C@H](CN(C)Cc2ccncc2)Oc2c(NC(=O)Nc3cccc4ccccc34)cccc2C1=O`, the cytotoxicity call was “inactive”.

Take `COc1ccc(NC(=O)N(C)C[C@H]2Oc3ccc(NC(=O)CCN4CCOCC4)cc3C(=O)N([C@@H](C)CO)C[C@@H]2C)cc1`: the cytotoxicity call is “inactive”.

For `C[C@@H]1CCCCO[C@@H](CN(C)CC2CC2)[C@@H](C)CN([C@H](C)CO)C(=O)c2cc(NC(=O)c3ccccc3)ccc2O1`, the cytotoxicity call was “inactive”.

With `C[C@H](CO)N1C[C@H](C)[C@@H](CN(C)Cc2ccc(Oc3ccccc3)cc2)Oc2ccc(NC(=O)Nc3ccccc3)cc2CC1=O`, the cytotoxicity call is “inactive”.

As for `CCCNC(=O)N1C[C@H]2[C@@H](c3ccccc31)[C@H](CO)N2C(=O)CN1CCOCC1`, the cytotoxicity call is “inactive”.

Take `C[C@@H]1CN([C@H](C)CO)S(=O)(=O)c2ccc(C#Cc3ccncc3)cc2O[C@@H]1CN(C)C(=O)C1CCC1`: the cytotoxicity call is “inactive”.

As to `C[C@@H]1CN([C@H](C)CO)C(=O)c2cc(NC(=O)C3CCCCC3)ccc2O[C@@H]1CN(C)Cc1ccc(Oc2ccccc2)cc1`, the cytotoxicity call is “inactive”.

In the case of `Cc1ccc(S(=O)(=O)N(C)C[C@@H]2OCCCC[C@@H](C)Oc3ccc(NC(=O)Nc4ccc(C(F)(F)F)cc4)cc3C(=O)N([C@H](C)CO)C[C@@H]2C)cc1`, the cytotoxicity call was “inactive”.

Take `CCOC(=O)CCCCCC(=O)Nc1ccc2c(c1)C(=O)N([C@@H](C)CO)C[C@H](C)[C@H](CN(C)C(=O)c1ccccc1)OCCCC[C@H](C)O2`: the cytotoxicity call is “inactive”.

As to `C[C@@H]1CN([C@H](C)CO)C(=O)c2cc(NS(=O)(=O)c3cccs3)ccc2O[C@@H]1CN(C)Cc1ccncc1`, the cytotoxicity call was “inactive”.

On to `CCc1ccc(Nc2c3c(nc4ccccc24)CCCC3)cc1`, for which the cytotoxicity call is “inactive”.

As for `C[C@@H]1CCCCO[C@H](CN(C)S(=O)(=O)c2ccc(F)cc2)[C@H](C)CN([C@H](C)CO)C(=O)c2cc(NC(=O)CCC(F)(F)F)ccc2O1`, the cytotoxicity call was “inactive”.

Regarding `COCCNC(=O)C[C@@H]1CC[C@H](NS(=O)(=O)c2ccc(C)cc2)[C@@H](CO)O1`, the cytotoxicity call was “inactive”.

As to `CC(C)NC(=O)Nc1ccc2c(c1)C(=O)N([C@@H](C)CO)C[C@@H](C)[C@H](CN(C)S(C)(=O)=O)OCCCC[C@@H](C)O2`, the cytotoxicity call was “inactive”.

As for `C[C@@H]1CN([C@H](C)CO)S(=O)(=O)c2ccc(C#C[C@@H](C)O)cc2O[C@@H]1CN(C)C`, the cytotoxicity call is “inactive”.

For the compound `C=CC[C@@H](CC(=O)N[C@H](CO)Cc1ccccc1)C(=O)N[C@H](C)COC(=O)[C@@H](CC=C)CC(=O)OC(C)(C)C`, the cytotoxicity call was “inactive”.

The next test concerns HepG2. The test is described as follows: cytotoxicity call (relative viability < 0.9). To be noted: 10 µM.
Turning to `CC(=O)O[C@H]1[C@H](O)[C@@H](O[C@@H]2C[C@](C)(O[C@H]3O[C@H](C)[C@H](O)[C@H](O)[C@@H]3O[C@@H]3O[C@H](C)[C@@H](O)[C@H](O)[C@@H]3O)O[C@@H]3CC[C@H]4C(C)(C)CCC[C@]4(C)[C@@H]23)O[C@@H](CO)[C@H]1O`, the cytotoxicity call was “inactive”.

For `C=CCOC(=O)[C@H]1[C@@H]2C(=O)O[C@@H](c3ccccc3)[C@@H](c3ccccc3)N2[C@@H](c2ccc(OCCOC(=O)[C@H]3C[C@H]4C(=O)N[C@@H](Cc5ccccc5)C(=O)N4[C@H]3c3cccc(OCCO)c3)cc2)[C@]12C(=O)Nc1ccc(I)cc12`, the cytotoxicity call is “inactive”.

Turning to `COc1ccc(NC(=O)Nc2ccc3c(c2)C(=O)N([C@H](C)CO)C[C@@H](C)[C@@H](CN(C)Cc2ccc(-c4ccccc4)cc2)O3)cc1`, the cytotoxicity call is “active”.

Turning to `C[C@@H]1CN([C@@H](C)CO)C(=O)Cc2cc(NC(=O)Nc3cccc4ccccc34)ccc2O[C@@H]1CN(C)C(=O)Nc1ccc(F)cc1`, the cytotoxicity call is “inactive”.

With `C[C@@H]1CN([C@@H](C)CO)C(=O)c2cccc(NC(=O)Nc3ccc4c(c3)OCO4)c2O[C@@H]1CN(C)Cc1ccc(Oc2ccccc2)cc1`, the cytotoxicity call is “inactive”.

Consider `CCn1nnc2c(N3CCOCC3)ncnc21`, for which the cytotoxicity call is “inactive”.

For `C[C@H]1CN([C@@H](C)CO)C(=O)c2cc(NC(=O)CCN3CCOCC3)ccc2O[C@H]1CN(C)Cc1ccccc1`, the cytotoxicity call is “inactive”.

For `C[C@@H]1CCCCO[C@H](CN(C)Cc2ccc3c(c2)OCO3)[C@H](C)CN([C@H](C)CO)C(=O)c2cc(NC(=O)CCC(F)(F)F)ccc2O1`, the cytotoxicity call is “inactive”.

As for `N[C@H]1CCN(c2ccc(C(F)(F)F)cn2)C1`, the cytotoxicity call was “inactive”.

Consider `C[C@@H]1CN([C@@H](C)CO)C(=O)Cc2cc(NC(=O)c3ccncc3)ccc2O[C@H]1CN(C)Cc1ccncc1`, for which the cytotoxicity call is “inactive”.

With `C[C@H]1CN([C@@H](C)CO)C(=O)Cc2cc(NC(=O)Nc3ccc(C(F)(F)F)cc3)ccc2O[C@H]1CN(C)C(=O)Nc1cccc2ccccc12`, the cytotoxicity call was “inactive”.

In the case of `C[C@H](CO)N1C[C@H](C)[C@@H](CN(C)C(=O)Nc2cccc3ccccc23)Oc2c(NS(=O)(=O)c3cccs3)cccc2C1=O`, the cytotoxicity call was “inactive”.

On to `COc1ccc(cc1)S(=O)(=O)N1C[C@]2(C1)CN([C@H](CO)c1c2c2ccc(cc2n1C)OC)C(=O)c1cccnc1`, for which the cytotoxicity call is “inactive”.

Take `CCO[C@H]1OC(C(=O)N2CCOCC2)=C[C@@H](c2ccc3c(c2)OCO3)[C@@H]1CCCOC(=O)NCCCCCC(=O)NO`: the cytotoxicity call is “inactive”.

Turning to `Cc1noc(C)c1NC(=O)Nc1ccc2c(c1)C(=O)N([C@@H](C)CO)C[C@@H](C)[C@@H](CN(C)S(=O)(=O)c1ccc(Cl)cc1)OCCCC[C@H](C)O2`, the cytotoxicity call is “inactive”.

Regarding `CN(C)CCN1CCN(C)C2(CCN(C(=O)[C@H]3CCCO3)CC2)C1=O`, the cytotoxicity call is “inactive”.

Consider `O=C(CS(=O)(=O)c1cccc2nsnc12)N1CC(=O)N(CCc2ccccc2)C(=O)C1`, for which the cytotoxicity call was “inactive”.

On to `COc1ccc(NC(=O)N[C@H]2CC[C@H](CCNC(=O)CN3CCOCC3)O[C@@H]2CO)cc1`, for which the cytotoxicity call was “inactive”.

With `COc1nsnc1N1CCOCC1`, the cytotoxicity call is “inactive”.

Regarding `Cc1cc(=O)oc2cc(O[C@H]3O[C@@H](CO)[C@@H](O)[C@@H](O)[C@@H]3O)ccc12`, the cytotoxicity call is “inactive”.

With `O=C(C[C@H]1CC[C@@H]2[C@H](COC[C@H](O)CN2S(=O)(=O)c2ccc(Cl)cc2)O1)NCCN1CCCC1`, the cytotoxicity call was “inactive”.

As for `C[C@H]1CN([C@@H](C)CO)C(=O)Cc2cc(NC(=O)C3CC3)ccc2O[C@@H]1CN(C)S(=O)(=O)c1ccc(Cl)cc1`, the cytotoxicity call is “inactive”.

With `C[C@@H]1CCCCO[C@H](CN(C)C(=O)Nc2ccc(C(F)(F)F)cc2)[C@H](C)CN([C@H](C)CO)C(=O)c2cc(NC(=O)Cc3ccccc3)ccc2O1`, the cytotoxicity call was “inactive”.

With `Cc1noc(C)c1S(=O)(=O)Nc1cccc2c1O[C@@H](CN(C)C(=O)NC1CCCCC1)[C@@H](C)CN([C@H](C)CO)C2=O`, the cytotoxicity call was “inactive”.

Turning to `C[C@H](CO)N1C[C@H](C)[C@H](CN(C)Cc2ccncc2)Oc2c(NC(=O)Nc3cccc4ccccc34)cccc2C1=O`, the cytotoxicity call is “inactive”.

Turning to `COc1ccc(NC(=O)N(C)C[C@H]2Oc3ccc(NC(=O)CCN4CCOCC4)cc3C(=O)N([C@@H](C)CO)C[C@@H]2C)cc1`, the cytotoxicity call is “inactive”.

Turning to `C[C@@H]1CCCCO[C@@H](CN(C)CC2CC2)[C@@H](C)CN([C@H](C)CO)C(=O)c2cc(NC(=O)c3ccccc3)ccc2O1`, the cytotoxicity call is “inactive”.

Turning to `C[C@H](CO)N1C[C@H](C)[C@@H](CN(C)Cc2ccc(Oc3ccccc3)cc2)Oc2ccc(NC(=O)Nc3ccccc3)cc2CC1=O`, the cytotoxicity call was “inactive”.

Consider `CCCNC(=O)N1C[C@H]2[C@@H](c3ccccc31)[C@H](CO)N2C(=O)CN1CCOCC1`, for which the cytotoxicity call is “inactive”.

Regarding `C[C@@H]1CN([C@H](C)CO)S(=O)(=O)c2ccc(C#Cc3ccncc3)cc2O[C@@H]1CN(C)C(=O)C1CCC1`, the cytotoxicity call was “active”.

Consider `C[C@@H]1CN([C@H](C)CO)C(=O)c2cc(NC(=O)C3CCCCC3)ccc2O[C@@H]1CN(C)Cc1ccc(Oc2ccccc2)cc1`, for which the cytotoxicity call is “active”.

As for `Cc1ccc(S(=O)(=O)N(C)C[C@@H]2OCCCC[C@@H](C)Oc3ccc(NC(=O)Nc4ccc(C(F)(F)F)cc4)cc3C(=O)N([C@H](C)CO)C[C@@H]2C)cc1`, the cytotoxicity call was “inactive”.
